The campaign covered roughly 110,000 compounds. About 230 (0.21%) showed an effect of 50% or more. Some of the results follow.
biological target: DPAP1 (Plasmodium falciparum, UniProt Q8IIJ9); assay: primary screen, percent inhibition; read by cleavage of a fluorogenic dipeptide substrate; higher = more effect of the substance; parameters: species or system P. falciparum D10 trophozoite lysates; single well
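Further: 30 min substrate incubation versus DMSO and 10 µM JCP410 controls.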

Chain of DPAP1 (Q8IIJ9 whole entry, looked up): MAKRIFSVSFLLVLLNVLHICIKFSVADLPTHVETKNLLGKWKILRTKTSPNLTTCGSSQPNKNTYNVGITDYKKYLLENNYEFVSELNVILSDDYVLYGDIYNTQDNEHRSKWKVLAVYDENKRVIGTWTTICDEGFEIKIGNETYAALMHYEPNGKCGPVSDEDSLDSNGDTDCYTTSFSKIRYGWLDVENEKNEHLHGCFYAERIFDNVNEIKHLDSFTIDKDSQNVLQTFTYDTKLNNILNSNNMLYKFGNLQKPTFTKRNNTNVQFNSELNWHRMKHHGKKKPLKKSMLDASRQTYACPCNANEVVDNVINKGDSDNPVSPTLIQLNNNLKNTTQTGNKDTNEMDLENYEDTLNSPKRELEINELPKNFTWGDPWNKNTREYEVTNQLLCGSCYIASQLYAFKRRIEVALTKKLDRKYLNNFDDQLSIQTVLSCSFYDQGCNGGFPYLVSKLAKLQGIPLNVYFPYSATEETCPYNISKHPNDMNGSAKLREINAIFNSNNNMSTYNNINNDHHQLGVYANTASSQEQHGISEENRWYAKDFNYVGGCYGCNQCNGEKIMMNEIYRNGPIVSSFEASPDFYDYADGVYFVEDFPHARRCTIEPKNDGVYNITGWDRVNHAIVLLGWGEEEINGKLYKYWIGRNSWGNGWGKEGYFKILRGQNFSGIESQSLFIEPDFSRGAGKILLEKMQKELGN

How did the “% Inhibition @ 10 uM” value turn out when CCC(C(=O)NC(C)(C)C)n1nc(C)c2sc3ccccc3c2c1=O (stereo not shown) was run?
Its value is -3.93%.

Cc1ccc(N(CC(=O)NCCSc2ccc(Cl)cc2)S(C)(=O)=O)cc1 was tested. Which “% Inhibition @ 10 uM” value did it give?
Its value is -0.28%.

Which “% Inhibition @ 10 uM” value does the source give for Cc1cc(NC(=O)CSc2nc(-c3ccco3)cc(C(F)(F)F)n2)no1 here?
The value was -0.318%.

With Cc1ccc2onc(CC(=O)N3CCCC3)c2c1 as the molecule, how does the “% Inhibition @ 10 uM” value read?
The value was 1.79%.

Which “% Inhibition @ 10 uM” value does the source give for O=S(=O)(Nc1ccc(-c2cn3cccnc3n2)cc1)c1ccccc1 here?
The value was 0.13%.

Which “% Inhibition @ 10 uM” value does the source give for COc1ccc(N2CCN(Cc3ccc(OC)c(Br)c3)CC2)cc1 here?
The value was -0.969%.

With O=C(CCc1cn(Cc2ccccc2Cl)c2ccccc12)NC1CC1 as the molecule, how does the “% Inhibition @ 10 uM” value read?
Its value is -0.574%.

How did the “% Inhibition @ 10 uM” value turn out when CCOc1cc(/C=C2/NC(=O)N(c3ccccc3)C2=O)ccc1OCC(N)=O was run?
Its value is 1.28%.

CCc1ccc(NC(=O)COc2ccccc2)cc1 was tested. Which “% Inhibition @ 10 uM” value did it give?
Its value is 0.993%.

How did the “% Inhibition @ 10 uM” value turn out when CCOc1ccc(CCNCc2c(C(=O)O)n(CC)c3cc(C)ccc23)cc1 was run?
Its value is -0.397%.

How did the “% Inhibition @ 10 uM” value turn out when COc1cc(OC)c(OC)cc1/C=C1\CN(C)C/C(=C\c2cc(OC)c(OC)cc2OC)C1=O was run?
The value was 2.59%.

How did the “% Inhibition @ 10 uM” value turn out when COc1cccc(CN2CCN(Cc3ccc(SC)cc3)CC2)c1 was run?
The value was 3.04%.

CCOC(=O)c1ccc2c(c1)c1c(n2CC)C(=O)CCC1 was tested. Which “% Inhibition @ 10 uM” value did it give?
Its value is 4.9%.

With COc1ccc(C(=O)Nc2nc(-c3nnn(-c4cc(F)ccc4F)c3C)ns2)cc1 as the molecule, how does the “% Inhibition @ 10 uM” value read?
The value was -5.13%.

How did the “% Inhibition @ 10 uM” value turn out when Cc1c(CNCc2ccc3c(c2)OCO3)c(C(=O)O)c(C)n1Cc1ccccc1F was run?
Its value is -3.67%.

O=c1oc2cc(O)cc(O)c2c2c1CCC2 was tested. Which “% Inhibition @ 10 uM” value did it give?
Its value is -4.32%.

With Clc1cccc(N2CCN(CCc3ccccc3)CC2)c1 as the molecule, how does the “% Inhibition @ 10 uM” value read?
Its value is -1.64%.

How did the “% Inhibition @ 10 uM” value turn out when COc1ccc(C(=O)c2ccccn2)cc1 was run?
Its value is 4.22%.

Which “% Inhibition @ 10 uM” value does the source give for CCOc1ccc(/C=C2\Sc3ccccc3C2=O)cc1OC here?
Its value is 1.01%.

Which “% Inhibition @ 10 uM” value does the source give for CCCNC(=O)c1ccc2c(c1)sc1nc(-c3ccc(F)cc3)cn12 here?
The value was 5.11%.

How did the “% Inhibition @ 10 uM” value turn out when CCOc1ccccc1-n1nnc(-c2nsc(NC(=O)c3ccccc3)n2)c1C was run?
The value was -3.2%.

How did the “% Inhibition @ 10 uM” value turn out when O=c1oc2ccc(Cl)cc2n1Cc1ccc(Cl)cc1 was run?
Its value is 0.687%.

Cc1cccnc1NC(=O)Nc1ccccc1Cl was tested. Which “% Inhibition @ 10 uM” value did it give?
The value was -6.22%.

For COc1ccc(S(=O)(=O)N(CC(N)=O)c2cc(C)cc(C)c2)cc1OC, which “% Inhibition @ 10 uM” value is on record?
Its value is -3.13%.

O=C(CCCn1sc2ccccc2c1=O)NCc1ccco1 was tested. Which “% Inhibition @ 10 uM” value did it give?
Its value is -4.68%.

Which “% Inhibition @ 10 uM” value does the source give for O=C(Nc1cccnc1Cl)c1cc(-c2ccco2)on1 here?
The value was 0.0221%.

Which “% Inhibition @ 10 uM” value does the source give for COc1ccc(/N=C2/S/C(=C\c3cc(C)n(C)c3C)C(=O)N2C)cc1 here?
Its value is -4.49%.

With Cc1ccc2nc(NC(=O)c3nc(S(=O)(=O)Cc4ccccc4F)ncc3Cl)sc2c1 as the molecule, how does the “% Inhibition @ 10 uM” value read?
Its value is 4%.

O=C(CSc1nc(-c2ccc(F)cc2)cc(C(F)(F)F)n1)NCCN1CCOCC1 was tested. Which “% Inhibition @ 10 uM” value did it give?
The value was -2.75%.

How did the “% Inhibition @ 10 uM” value turn out when CCN(CC)c1ncnc2sc(C(=O)N3CCC(Cc4ccccc4)CC3)c(C)c12 was run?
Its value is -0.458%.

With CC[C@@H](C)[C@@H](CS(=O)(=O)N[C@@H](CCc1ccccc1)C(=O)COc1ccc2c(c1)OCO2)NC(=O)OCc1ccccc1 as the molecule, how does the “% Inhibition @ 10 uM” value read?
Its value is -0.778%.

O=C(O)CCCCc1ccc(C(=O)c2ccccc2)s1 was tested. Which “% Inhibition @ 10 uM” value did it give?
Its value is -1.74%.

CCOC(=O)N1CCN(c2c(NC(CC)Cc3ccccc3)c(=O)c2=O)CC1 (stereo not shown) was tested. Which “% Inhibition @ 10 uM” value did it give?
Its value is -1.44%.

Which “% Inhibition @ 10 uM” value does the source give for CCN(CC)C(=O)CN(c1ccccc1Cl)S(=O)(=O)c1ccccc1 here?
Its value is 2.53%.

CC(=O)c1cccc(NC(=O)c2ccc(COc3cccc(Cl)c3)o2)c1 was tested. Which “% Inhibition @ 10 uM” value did it give?
The value was 0.52%.

With CC(=O)c1cc2c(cc1NC(=O)c1cccc(C)c1)OCO2 as the molecule, how does the “% Inhibition @ 10 uM” value read?
The value was 0.145%.

With CC1CN(Cc2nc3c(c(=O)n(C)c(=O)n3C)n2Cc2ccc(Cl)cc2Cl)CC(C)O1 (stereo not shown) as the molecule, how does the “% Inhibition @ 10 uM” value read?
The value was -2.29%.

How did the “% Inhibition @ 10 uM” value turn out when CCN(CC)CCCNC(=O)Cn1ncc2c3ccccc3n(Cc3ccc(F)cc3)c2c1=O was run?
Its value is -7.1%.

COc1ccc(Br)cc1CNC(=O)C1CCN(S(C)(=O)=O)CC1 was tested. Which “% Inhibition @ 10 uM” value did it give?
Its value is -3.12%.

With CCOc1ccc(CCNC(=O)CS(=O)(=O)Cc2nc(-c3ccccc3F)oc2C)cc1 as the molecule, how does the “% Inhibition @ 10 uM” value read?
Its value is -0.138%.

O=C(Cn1c(C(=O)O)cc2ccccc21)c1ccccc1 was tested. Which “% Inhibition @ 10 uM” value did it give?
The value was -1.75%.

How did the “% Inhibition @ 10 uM” value turn out when COc1ccccc1CNC(=O)c1ccc2c(O)nc3c(-c4ccccc4)nnn3c2c1 was run?
The value was -3.85%.

How did the “% Inhibition @ 10 uM” value turn out when Cn1c(-c2nonc2NC(=O)c2ccccc2Cl)nc2ccccc21 was run?
Its value is 1.35%.

For CN(C)S(=O)(=O)c1ccc(C(=O)C2=C(O)C(=O)N(CCN3CCCCC3)C2c2ccccc2)cc1 (stereo not shown), which “% Inhibition @ 10 uM” value is on record?
The value was -3.45%.

How did the “% Inhibition @ 10 uM” value turn out when COc1ccc(CCNC(=O)CCCCCn2nnc3ccccc3c2=O)cc1OC was run?
The value was 4.02%.

Which “% Inhibition @ 10 uM” value does the source give for Cc1onc(-c2c(Cl)cccc2Cl)c1C(=O)N(Cc1ccccc1)c1ccccn1 here?
Its value is -2.35%.

How did the “% Inhibition @ 10 uM” value turn out when COC(=O)c1ccc(Cn2nc(C(F)(F)F)cc2C)cc1 was run?
The value was -1.33%.

Cc1cc2c(c(=O)n1CCc1ccccc1)C(c1ccccc1F)C(C#N)=C(N)O2 (stereo not shown) was tested. Which “% Inhibition @ 10 uM” value did it give?
The value was 16.1%.

Which “% Inhibition @ 10 uM” value does the source give for COc1ccc(C)cc1N(CC(=O)Nc1ccc(Cl)cc1)S(C)(=O)=O here?
Its value is -5%.
